# Assay results reported in PubChem BioAssay AID1460 (National Center for Advancing Translational Sciences (NCATS), 2008).
# The campaign covered roughly 270,000 compounds. About 5,800 (2.1%) were called active. Inconclusive results, whose numbers are uncertain, are shown with a selection of clear calls. The call rests on the fitted dose curve; in most records, active means well fitted inhibition curve with a large enough effect; inconclusive means small, poorly fitted or top-dose-only effect; inactive means flat fitted curve, though single readings scatter. Potencies of inconclusive entries are doubtful fits and often do not repeat.
# Molecular target: Microtubule-associated protein tau (Homo sapiens) (UniProt P10636)
# Chain of UniProt P10636 (P10636 whole entry, looked up): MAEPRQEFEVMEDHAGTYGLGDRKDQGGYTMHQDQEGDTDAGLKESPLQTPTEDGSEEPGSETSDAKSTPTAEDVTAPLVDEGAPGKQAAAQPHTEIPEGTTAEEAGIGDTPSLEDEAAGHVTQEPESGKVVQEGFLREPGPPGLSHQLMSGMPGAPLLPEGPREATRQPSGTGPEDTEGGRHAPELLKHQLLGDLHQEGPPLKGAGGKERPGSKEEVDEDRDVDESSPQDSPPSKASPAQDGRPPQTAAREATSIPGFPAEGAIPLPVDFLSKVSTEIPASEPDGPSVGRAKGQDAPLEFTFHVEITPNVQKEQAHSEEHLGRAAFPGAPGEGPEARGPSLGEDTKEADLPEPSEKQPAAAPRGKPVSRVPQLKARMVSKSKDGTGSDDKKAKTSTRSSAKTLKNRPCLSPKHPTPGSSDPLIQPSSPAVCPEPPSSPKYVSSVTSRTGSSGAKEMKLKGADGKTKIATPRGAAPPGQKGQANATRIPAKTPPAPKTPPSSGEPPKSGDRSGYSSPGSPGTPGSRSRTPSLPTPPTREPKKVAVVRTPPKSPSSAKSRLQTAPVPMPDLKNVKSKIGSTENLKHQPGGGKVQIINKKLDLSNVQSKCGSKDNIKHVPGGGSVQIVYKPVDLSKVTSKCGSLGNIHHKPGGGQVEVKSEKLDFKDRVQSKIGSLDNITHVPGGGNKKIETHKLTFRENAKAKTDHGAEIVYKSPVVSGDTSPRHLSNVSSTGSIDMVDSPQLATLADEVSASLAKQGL
# Experiment: qHTS for Inhibitors of Tau Fibril Formation, Thioflavin T Binding; further: nearly all actives have a fitted effect of over 55% in size
# Conditions: recombinant tau K18 P301L (four-repeat tau fragment), heparin-induced fibrillization, ThT fluorescence; series mostly up to 57.4 µM; activity, negative = inhibition: at the top concentration
# In short: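 In this qHTS, human K18 P301L tau is incubated with compound and heparin for 6 hr at 37 C, and Thioflavin T fluorescence then reports fibril load.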
# On the % scale 0 is the no-effect control and ±100 the full control effect; potency means the concentration at half of the fitted maximal effect; tags describe the fitted curve by direction and shape.
Compound,"activity, negative = inhibition",Potency
CCN(CC)S(=O)(=O)c1ccc2c(c1)c(=O)c(C(=O)N1CCN(c3cccc(C)c3)C(C)C1)cn2C (stereo not given),inactive: -13.2%,
Cc1cc(/C=N/Nc2ncnc(N)c2[N+](=O)[O-])c(C)n1-c1ccccc1,,"inconclusive: 11.2 µM [inhibitor, partial curve]"
Cc1nc2ccccc2c2nc3ccccc3n12,,"inconclusive: 35.5 µM [inhibitor, partial curve, poor fit]"
Cc1[nH]nc(-c2ccc(O)c(C)c2O)c1-c1cnn(-c2ccccc2)c1,,"inconclusive: 22.4 µM [inhibitor, partial curve]"
O=c1c(CN2CCN(c3ccccn3)CC2)coc2ccccc12,inactive: 9.84%,
CCOc1ccc(Br)cc1C1C(C(=O)OC)=C(N)Oc2cc(N(C)C)ccc21 (stereo not given),,"inconclusive: 31.6 µM [inhibitor, partial curve, poor fit]"
Cc1ccc(Sc2c(C)[nH]n(C(C)(C)C)c2=O)cc1,inactive: 0.663%,
COC(=O)c1cnn2c(C)c(Cc3c(C)cc(C)cc3C)c(C)nc12,,"inconclusive: 25.1 µM [inhibitor, single point]"
C/C(=N\NC(=O)c1cc(-c2ccncc2)nc2ccccc12)c1ccc(N2CCOCC2)cc1,,"inconclusive: 6.31 µM [inhibitor, partial curve]"
COc1ccc(C2=C(Nc3ccc(C)c(C)c3)c3ccccc3C2=O)cc1,inactive: -11.5%,
CCOc1ccc2nc(COC(=O)c3cccs3)c(C(C)=O)[n+]([O-])c2c1,,"inconclusive: 22.4 µM [inhibitor, single point]"
Cc1ccsc1C1C(C#N)=C(N)Oc2n[nH]c(C)c21 (stereo not given),,"inconclusive: 10 µM [inhibitor, partial curve]"
O=C(CSc1cccc[n+]1[O-])Nc1ccc(C(F)(F)F)cc1[N+](=O)[O-],inactive: -6.21%,
C=CCc1ccc(OCCCCNC2CCCC2)c(OC)c1,inactive: -0.994%,
CCOc1ccc(N(C)C(CNS(=O)(=O)c2ccccc2)c2ccccc2)cc1 (stereo not given),inactive: -17.9%,
O=C(COc1ccccc1)Nc1cccc(-c2cn3cccnc3n2)c1,,"inconclusive: 12.6 µM [inhibitor, partial curve]"
Cc1ccc(-n2c(CNc3cccc(Cl)c3)n[nH]c2=S)cc1,inactive: 4.38%,
Cc1cccc(N2CCN(C(=O)CCn3c(=O)c4cccn4c4cccnc43)CC2)c1C,inactive: -17.6%,
O=C(O)c1ccc(N/N=C/C2=Cc3ccccc3OC2)cc1,,active: 3.98 µM
COCc1cc(=O)n2[nH]c(-c3cccs3)cc2n1,,"inconclusive: 0.141 µM [inhibitor, full curve, poor fit]"
S=C(Nc1cccc(Cl)c1)Nc1ccc2cn[nH]c2c1,,"inconclusive: 17.8 µM [inhibitor, partial curve]"
COc1ccc(NC(=O)c2cnc[nH]2)cc1,inactive: -8.5%,
CC(=O)Oc1cc2oc(=O)cc(C)c2cc1OC(C)=O,,"inconclusive: 25.1 µM [inhibitor, partial curve, poor fit]"

Compound,"activity, negative = inhibition",Potency
O=C1C2=C(NC(=S)NC2c2ccc(Cl)cc2)NC(c2ccc(Cl)cc2)N1c1ccc(Cl)cc1 (stereo not given),,active: 31.6 µM
CCc1c(C)sc(NC(=O)Cn2nc(C)c([N+](=O)[O-])c2C)c1C(N)=O,,"inconclusive: 31.6 µM [inhibitor, single point]"
O=C(COc1ccccc1[N+](=O)[O-])Nc1ccc(-c2nc3ccccc3s2)cc1,,"inconclusive: 3.55 µM [inhibitor, full curve]"
CC(=O)O[C@H]1C(=O)[C@@]2(C)[C@H]([C@H](OC(=O)c3ccccc3)[C@]3(O)C[C@H](OC(=O)[C@H](O)C(NC(=O)c4ccccc4)c4ccccc4)C(C)=C1C3(C)C)[C@]1(OC(C)=O)CO[C@@H]1C[C@@H]2O (stereo not given in full),,"inconclusive: 44.7 µM [inhibitor, single point]"
CCCCN=C1NN=C(c2cccc([N+](=O)[O-])c2)CS1,,"inconclusive: 12.6 µM [inhibitor, partial curve]"
O=C(OCn1ncc(Br)c(Br)c1=O)c1ccccc1Cl,,active: 8.91 µM
CCc1nn(CC(=O)NCc2ccccc2Cl)c(=O)c2cccn12,,"inconclusive: 11.2 µM [activator, partial curve]"
O=S(=O)(NCC(Nc1ccc(Cl)cc1)c1ccccc1)c1ccccc1 (stereo not given),,inactive
COc1cc(NC(=O)Nc2ccccc2)c(OC)cc1NC(=O)CN1CCCCC1,,"inconclusive: 28.2 µM [inhibitor, partial curve]"
Cc1cc(C)c(NC(=O)COc2ccc3c(C)cc(=O)oc3c2)c(C)c1,,"inconclusive: 20 µM [inhibitor, single point]"
CCn1c(SCC(=O)c2ccccc2)nc2ccccc2c1=O,,"inconclusive: 1.58 µM [inhibitor, partial curve]"
COc1ccccc1C(=O)Nc1nnc(-c2ccc3c(c2)CCCC3)o1,,"inconclusive: 8.91 µM [inhibitor, partial curve]"
CCN(CC)c1ccc(/C=C/C(=O)c2ccc(Br)cc2)cc1,,"inconclusive: 10 µM [inhibitor, partial curve]"
COc1ccc(OC)c(NC2c3ccccc3C(=O)N2c2cccnc2)c1 (stereo not given),inactive: -5.59%,
O=C(c1ccccc1)c1cnc(Nc2ccccc2Cl)s1,,"inconclusive: 39.8 µM [inhibitor, single point]"
CCN(CCCNC(=O)c1cc(Nc2ccccc2OC)nc2ccccc12)c1cccc(C)c1,,"inconclusive: 28.2 µM [inhibitor, partial curve, poor fit]"
COC(=O)c1ccc(CSc2nc3ccc(C)cc3[nH]2)o1,inactive: -9.2%,
COc1ccc(C2CC(=O)C(CS(=O)(=O)c3ccccc3)C(=O)C2)cc1 (stereo not given),,"inconclusive: 2.51 µM [inhibitor, full curve]"
Cc1cc(C)c(S(=O)(=O)N(CC(=O)O)C2CCCCC2)c(C)c1,inactive: -11.9%,
COc1cc(SC)ccc1C(=O)NCCOc1ccc(C)c(C)c1,,"inconclusive: 11.2 µM [inhibitor, partial curve]"
O=C(Nc1ccc(F)cc1F)c1ccccc1-c1ccccc1,inactive: 0.69%,
CCCCCSc1nnc(-c2cc(Br)ccc2N)c(=O)[nH]1,,"inconclusive: 17.8 µM [inhibitor, partial curve]"
